No constants are given. Whether binding was seen depends on the method and setting. For some of these results: In cells and extracts the contact can be indirect. Some results given as binding are weak or reduced against the parent protein; the word gives no strength. For some of these results: Tags and fused reporters may be left off the sequences shown. Values belong to the molecule of their own block, whether it stands above or below them.
Key:
[1] = target: T1, SPAST-M1 (expression plasmid of Fig. 4A) (human) (UniProt Q9UBP0); experiment: co-IP; HEK293 co-transfected with expression plasmids of SPAST-M1 and CK2α or CK2β; immunoprecipitation and western blot (Fig. 4A)
T1 sequence: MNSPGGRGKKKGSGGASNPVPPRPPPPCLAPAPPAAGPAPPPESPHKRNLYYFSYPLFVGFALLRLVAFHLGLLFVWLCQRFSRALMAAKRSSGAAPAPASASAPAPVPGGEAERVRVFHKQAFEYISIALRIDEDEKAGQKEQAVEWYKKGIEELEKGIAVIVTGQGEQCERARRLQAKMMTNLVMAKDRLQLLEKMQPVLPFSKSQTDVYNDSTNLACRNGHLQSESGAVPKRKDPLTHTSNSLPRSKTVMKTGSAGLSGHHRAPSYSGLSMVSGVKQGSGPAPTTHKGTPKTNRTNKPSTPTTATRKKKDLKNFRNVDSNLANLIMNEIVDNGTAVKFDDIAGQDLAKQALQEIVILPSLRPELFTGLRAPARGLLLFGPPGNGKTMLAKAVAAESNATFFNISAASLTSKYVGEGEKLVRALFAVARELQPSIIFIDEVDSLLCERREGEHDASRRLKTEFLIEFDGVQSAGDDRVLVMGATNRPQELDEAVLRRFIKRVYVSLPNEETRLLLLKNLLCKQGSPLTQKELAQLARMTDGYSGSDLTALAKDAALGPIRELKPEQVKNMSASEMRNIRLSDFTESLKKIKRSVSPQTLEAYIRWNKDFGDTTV

Amino acid sequences for entries named in this document (tags omitted). A change or cut given only in a name is not applied to a line headed by its entry.
UniProt Q9UF56: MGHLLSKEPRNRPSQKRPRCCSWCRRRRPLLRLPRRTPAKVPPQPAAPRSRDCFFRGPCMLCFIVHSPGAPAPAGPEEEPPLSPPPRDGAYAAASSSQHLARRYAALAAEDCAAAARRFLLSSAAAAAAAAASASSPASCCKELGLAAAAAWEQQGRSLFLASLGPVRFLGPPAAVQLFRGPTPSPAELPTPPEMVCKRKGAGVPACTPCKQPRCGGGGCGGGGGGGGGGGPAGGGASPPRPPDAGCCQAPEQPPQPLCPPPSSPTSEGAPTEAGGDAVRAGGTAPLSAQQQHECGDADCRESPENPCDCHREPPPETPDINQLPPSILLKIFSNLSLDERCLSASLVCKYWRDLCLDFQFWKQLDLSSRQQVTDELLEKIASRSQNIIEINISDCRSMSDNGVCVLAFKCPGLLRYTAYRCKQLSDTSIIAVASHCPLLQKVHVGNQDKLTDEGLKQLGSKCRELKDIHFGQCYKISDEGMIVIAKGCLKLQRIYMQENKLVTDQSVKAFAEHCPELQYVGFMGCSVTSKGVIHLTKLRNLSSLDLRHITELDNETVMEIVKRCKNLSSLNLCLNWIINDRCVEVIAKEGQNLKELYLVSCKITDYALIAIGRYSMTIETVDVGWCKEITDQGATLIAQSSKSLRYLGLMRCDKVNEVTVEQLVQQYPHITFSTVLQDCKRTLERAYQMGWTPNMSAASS
UniProt P68400: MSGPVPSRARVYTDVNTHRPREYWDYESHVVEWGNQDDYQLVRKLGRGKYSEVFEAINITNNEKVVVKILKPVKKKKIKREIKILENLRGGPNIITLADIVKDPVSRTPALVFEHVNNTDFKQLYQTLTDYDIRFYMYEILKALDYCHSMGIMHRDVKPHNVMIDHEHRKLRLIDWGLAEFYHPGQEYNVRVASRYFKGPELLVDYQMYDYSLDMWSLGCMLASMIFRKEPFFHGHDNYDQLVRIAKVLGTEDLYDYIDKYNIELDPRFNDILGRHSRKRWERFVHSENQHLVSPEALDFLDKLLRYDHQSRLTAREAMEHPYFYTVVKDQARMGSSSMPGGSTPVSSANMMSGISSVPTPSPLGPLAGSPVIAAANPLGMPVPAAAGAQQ
UniProt P67870: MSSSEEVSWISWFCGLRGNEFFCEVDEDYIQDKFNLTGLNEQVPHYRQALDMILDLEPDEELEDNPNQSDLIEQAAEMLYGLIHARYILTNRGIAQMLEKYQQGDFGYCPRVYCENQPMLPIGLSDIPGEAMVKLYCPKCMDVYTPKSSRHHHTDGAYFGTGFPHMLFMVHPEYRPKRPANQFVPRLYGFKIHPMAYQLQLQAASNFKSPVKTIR
UniProt P63208: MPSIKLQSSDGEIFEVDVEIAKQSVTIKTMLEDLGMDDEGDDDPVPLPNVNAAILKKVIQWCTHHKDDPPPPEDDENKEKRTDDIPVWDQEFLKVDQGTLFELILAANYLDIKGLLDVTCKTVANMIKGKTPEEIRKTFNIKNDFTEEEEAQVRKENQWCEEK

[2] = target: T2, Flag-SPAST-M87 (human) (UniProt Q9UBP0); experiment: co-IP; nuclear fraction of HEK293 transfected with the indicated plasmids and treated with MG132; anti-Flag magnetic beads (Fig. 3D, E)
T2 sequence: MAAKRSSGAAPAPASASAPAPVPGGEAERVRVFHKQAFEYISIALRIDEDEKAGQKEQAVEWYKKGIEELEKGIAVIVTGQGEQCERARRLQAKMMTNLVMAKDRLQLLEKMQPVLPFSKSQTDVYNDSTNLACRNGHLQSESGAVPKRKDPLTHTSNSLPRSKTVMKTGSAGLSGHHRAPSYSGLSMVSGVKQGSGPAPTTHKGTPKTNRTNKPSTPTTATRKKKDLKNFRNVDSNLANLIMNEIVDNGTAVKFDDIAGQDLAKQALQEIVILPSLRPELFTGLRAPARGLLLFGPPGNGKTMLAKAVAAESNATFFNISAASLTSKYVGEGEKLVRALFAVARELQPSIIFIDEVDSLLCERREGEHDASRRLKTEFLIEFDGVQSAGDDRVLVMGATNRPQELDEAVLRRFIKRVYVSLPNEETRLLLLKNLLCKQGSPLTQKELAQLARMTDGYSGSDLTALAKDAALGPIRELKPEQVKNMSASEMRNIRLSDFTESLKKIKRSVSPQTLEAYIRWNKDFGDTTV

[3] = target: T3, Flag-SPAST-M1 (human) (UniProt Q9UBP0); experiment: as above
T3 sequence: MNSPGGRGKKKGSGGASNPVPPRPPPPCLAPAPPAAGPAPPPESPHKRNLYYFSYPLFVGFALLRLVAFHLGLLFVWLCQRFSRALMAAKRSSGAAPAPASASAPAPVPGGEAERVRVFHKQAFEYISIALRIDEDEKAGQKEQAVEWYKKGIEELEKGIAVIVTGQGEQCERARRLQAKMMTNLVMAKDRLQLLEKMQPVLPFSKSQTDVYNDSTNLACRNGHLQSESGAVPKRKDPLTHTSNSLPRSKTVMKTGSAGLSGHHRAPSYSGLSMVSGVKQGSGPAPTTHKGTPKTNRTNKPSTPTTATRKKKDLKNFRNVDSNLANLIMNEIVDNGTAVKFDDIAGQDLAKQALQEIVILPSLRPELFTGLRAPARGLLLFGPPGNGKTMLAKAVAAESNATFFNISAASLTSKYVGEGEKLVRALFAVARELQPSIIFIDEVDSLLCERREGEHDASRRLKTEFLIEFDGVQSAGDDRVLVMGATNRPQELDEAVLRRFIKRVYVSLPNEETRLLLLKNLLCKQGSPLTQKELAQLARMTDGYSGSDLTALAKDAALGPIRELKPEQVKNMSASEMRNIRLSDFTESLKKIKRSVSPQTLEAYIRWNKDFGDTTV

[4] = target: T2, Flag-SPAST-M87 (human); experiment: co-IP; HEK293 transfected with the indicated plasmids (Flag-SPAST constructs); anti-Flag magnetic beads; western blot (Fig. 2E, Fig. 6B)
[5] = target: T4, Flag-SPAST-M1 Y52C (human) (UniProt Q9UBP0); experiment: as above
T4 sequence: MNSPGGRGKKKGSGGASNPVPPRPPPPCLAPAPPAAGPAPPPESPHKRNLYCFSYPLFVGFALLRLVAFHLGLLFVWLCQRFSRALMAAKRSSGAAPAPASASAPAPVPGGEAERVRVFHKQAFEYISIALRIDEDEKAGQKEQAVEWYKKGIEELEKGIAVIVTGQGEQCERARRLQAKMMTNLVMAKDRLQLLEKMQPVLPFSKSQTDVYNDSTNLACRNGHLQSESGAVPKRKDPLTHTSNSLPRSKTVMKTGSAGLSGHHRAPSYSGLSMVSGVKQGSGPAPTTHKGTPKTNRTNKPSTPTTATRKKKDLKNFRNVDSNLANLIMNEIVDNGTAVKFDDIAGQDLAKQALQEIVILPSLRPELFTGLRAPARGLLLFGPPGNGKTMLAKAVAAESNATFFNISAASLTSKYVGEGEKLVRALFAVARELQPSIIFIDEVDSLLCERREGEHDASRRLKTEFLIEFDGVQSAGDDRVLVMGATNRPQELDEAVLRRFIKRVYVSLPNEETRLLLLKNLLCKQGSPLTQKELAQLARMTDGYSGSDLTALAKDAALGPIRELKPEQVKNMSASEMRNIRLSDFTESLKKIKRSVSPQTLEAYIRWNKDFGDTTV

[6] = target: T5, Flag-SPAST-NT (1–250 a.a.) (human) (UniProt Q9UBP0); experiment: as above
T5 sequence: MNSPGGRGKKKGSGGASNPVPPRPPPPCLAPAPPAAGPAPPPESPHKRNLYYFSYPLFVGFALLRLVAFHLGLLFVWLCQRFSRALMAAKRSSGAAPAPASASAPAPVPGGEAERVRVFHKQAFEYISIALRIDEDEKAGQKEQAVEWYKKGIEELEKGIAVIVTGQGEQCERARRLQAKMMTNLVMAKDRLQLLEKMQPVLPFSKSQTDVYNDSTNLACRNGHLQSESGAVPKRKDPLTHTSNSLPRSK

[7] = target: T3, Flag-SPAST-M1 (human); experiment: as above
[8] = target: T2, Flag-SPAST-M87 (human); experiment: co-IP; cytoplasmic fraction of HEK293 transfected with the indicated plasmids and treated with MG132; anti-Flag magnetic beads (Fig. 3D, E)
[9] = target: T3, Flag-SPAST-M1 (human); experiment: as above
[10] = target: T6, GST-KLHL12 (human) (UniProt Q53G59); experiment: pull-down; in vitro binding assay: purified recombinant proteins from E. coli, 0.5 μg each in 200 μl 1 × PBS, 0.1% NP-40, pulled down with glutathione sepharose beads (Fig. 2I); both purified
T6 sequence: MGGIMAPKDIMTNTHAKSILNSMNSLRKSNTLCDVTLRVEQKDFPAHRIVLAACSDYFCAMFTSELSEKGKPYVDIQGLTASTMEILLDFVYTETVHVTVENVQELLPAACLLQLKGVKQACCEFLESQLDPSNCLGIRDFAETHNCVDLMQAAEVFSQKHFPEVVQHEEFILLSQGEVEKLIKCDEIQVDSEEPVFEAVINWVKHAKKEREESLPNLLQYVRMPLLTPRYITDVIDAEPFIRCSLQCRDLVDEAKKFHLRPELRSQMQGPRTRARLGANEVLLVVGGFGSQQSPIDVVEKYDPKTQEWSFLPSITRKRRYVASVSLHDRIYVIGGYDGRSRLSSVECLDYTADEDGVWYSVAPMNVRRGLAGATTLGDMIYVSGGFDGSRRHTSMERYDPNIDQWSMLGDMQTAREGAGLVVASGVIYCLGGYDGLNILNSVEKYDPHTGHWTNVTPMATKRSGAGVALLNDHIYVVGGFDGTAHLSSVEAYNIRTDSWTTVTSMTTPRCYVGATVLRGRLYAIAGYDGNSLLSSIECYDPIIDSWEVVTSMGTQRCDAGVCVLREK

[11] = target: T3, Flag-SPAST-M1 (human); experiment: co-IP; HEK293 transfected with Flag-SPAST-M1; anti-Flag beads; western blot for endogenous proteins (Fig. S1B, Fig. 2C); NET gel buffer
[12] = target: FBXL17 (F-box and leucine-rich repeat protein 17) on the HuProt protein microarray (human) (UniProt Q9UF56); experiment: peptide or protein array; HuProt human protein microarray (over 20,000 full-length recombinant human proteins); 3 μg biotinylated His-SPAST on the array for 8 h at 4 °C; detected with streptavidin-Alexa-Fluor 635; both purified
[13] = target: Flag-FBXL17 (human) (UniProt Q9UF56); experiment: co-IP; HEK293 co-transfected with Flag-tagged F-box and HA-SPAST-M1 constructs; immunoprecipitation-western blot (Fig. 2H)
[14] = target: endogenous FBXL17 (ReNcell CX) (human (endogenous in ReNcell CX)) (UniProt Q9UF56); experiment: co-IP; endogenous proteins, ReNcell CX lysate in NET gel buffer; antibodies against FBXL17 or control IgG overnight at 4 °C, Protein A magnetic beads

Molecule: CK2α (from UniProt P68400 1-391)
binding [1]: no binding

Molecule: CK2β (from UniProt P67870 1-215)
binding [1]: binds

Molecule: endogenous Skp1 (HEK293) (from UniProt P63208 1-163)
binding [11]: binds

B1: biotinylated His-SPAST-M1 (natural protein, human, UniProt Q9UBP0 1-616, looked up)
chain: MNSPGGRGKKKGSGGASNPVPPRPPPPCLAPAPPAAGPAPPPESPHKRNLYYFSYPLFVGFALLRLVAFHLGLLFVWLCQRFSRALMAAKRSSGAAPAPASASAPAPVPGGEAERVRVFHKQAFEYISIALRIDEDEKAGQKEQAVEWYKKGIEELEKGIAVIVTGQGEQCERARRLQAKMMTNLVMAKDRLQLLEKMQPVLPFSKSQTDVYNDSTNLACRNGHLQSESGAVPKRKDPLTHTSNSLPRSKTVMKTGSAGLSGHHRAPSYSGLSMVSGVKQGSGPAPTTHKGTPKTNRTNKPSTPTTATRKKKDLKNFRNVDSNLANLIMNEIVDNGTAVKFDDIAGQDLAKQALQEIVILPSLRPELFTGLRAPARGLLLFGPPGNGKTMLAKAVAAESNATFFNISAASLTSKYVGEGEKLVRALFAVARELQPSIIFIDEVDSLLCERREGEHDASRRLKTEFLIEFDGVQSAGDDRVLVMGATNRPQELDEAVLRRFIKRVYVSLPNEETRLLLLKNLLCKQGSPLTQKELAQLARMTDGYSGSDLTALAKDAALGPIRELKPEQVKNMSASEMRNIRLSDFTESLKKIKRSVSPQTLEAYIRWNKDFGDTTV
modifications: biotin (biotinylated, site not stated)
notes: The methods call it His-SPAST; the results call it His-SPAST-M1; also called His-tagged SPAST protein; source: E. coli BL21 (pET28a-His-SPAST), purified (Ni-NTA)
binding [12]: binds

B2: HA-SPAST-M1 (protein, UniProt Q9UBP0 1-616)
chain: MNSPGGRGKKKGSGGASNPVPPRPPPPCLAPAPPAAGPAPPPESPHKRNLYYFSYPLFVGFALLRLVAFHLGLLFVWLCQRFSRALMAAKRSSGAAPAPASASAPAPVPGGEAERVRVFHKQAFEYISIALRIDEDEKAGQKEQAVEWYKKGIEELEKGIAVIVTGQGEQCERARRLQAKMMTNLVMAKDRLQLLEKMQPVLPFSKSQTDVYNDSTNLACRNGHLQSESGAVPKRKDPLTHTSNSLPRSKTVMKTGSAGLSGHHRAPSYSGLSMVSGVKQGSGPAPTTHKGTPKTNRTNKPSTPTTATRKKKDLKNFRNVDSNLANLIMNEIVDNGTAVKFDDIAGQDLAKQALQEIVILPSLRPELFTGLRAPARGLLLFGPPGNGKTMLAKAVAAESNATFFNISAASLTSKYVGEGEKLVRALFAVARELQPSIIFIDEVDSLLCERREGEHDASRRLKTEFLIEFDGVQSAGDDRVLVMGATNRPQELDEAVLRRFIKRVYVSLPNEETRLLLLKNLLCKQGSPLTQKELAQLARMTDGYSGSDLTALAKDAALGPIRELKPEQVKNMSASEMRNIRLSDFTESLKKIKRSVSPQTLEAYIRWNKDFGDTTV
binding [13]: binds

B3: endogenous SPAST-M1 (ReNcell CX) (protein, UniProt Q9UBP0 1-616)
chain: MNSPGGRGKKKGSGGASNPVPPRPPPPCLAPAPPAAGPAPPPESPHKRNLYYFSYPLFVGFALLRLVAFHLGLLFVWLCQRFSRALMAAKRSSGAAPAPASASAPAPVPGGEAERVRVFHKQAFEYISIALRIDEDEKAGQKEQAVEWYKKGIEELEKGIAVIVTGQGEQCERARRLQAKMMTNLVMAKDRLQLLEKMQPVLPFSKSQTDVYNDSTNLACRNGHLQSESGAVPKRKDPLTHTSNSLPRSKTVMKTGSAGLSGHHRAPSYSGLSMVSGVKQGSGPAPTTHKGTPKTNRTNKPSTPTTATRKKKDLKNFRNVDSNLANLIMNEIVDNGTAVKFDDIAGQDLAKQALQEIVILPSLRPELFTGLRAPARGLLLFGPPGNGKTMLAKAVAAESNATFFNISAASLTSKYVGEGEKLVRALFAVARELQPSIIFIDEVDSLLCERREGEHDASRRLKTEFLIEFDGVQSAGDDRVLVMGATNRPQELDEAVLRRFIKRVYVSLPNEETRLLLLKNLLCKQGSPLTQKELAQLARMTDGYSGSDLTALAKDAALGPIRELKPEQVKNMSASEMRNIRLSDFTESLKKIKRSVSPQTLEAYIRWNKDFGDTTV
binding [14]: binds

More lines, now with the values ahead:

binding [2]: no binding
binding [3]: binds
binding [4]: no binding
binding [5]: no binding
binding [6]: binds
binding [7]: binds
binding [8]: no binding
binding [9]: binds
Molecule: FBXL17 in HEK293 cells transfected with the indicated plasmids (Fig. 2E, 3D, 3E, 6B) (from UniProt Q9UF56 1-701)

binding [10]: binds
Molecule: His-tagged FBXL17-ΔNT1 (318-701a.a.) (from UniProt Q9UF56 318-701) (domain or fragment)

binding [11]: binds
Molecule: endogenous FBXL17 (HEK293) (from UniProt Q9UF56 1-701)

From article PMC9308218, “FBXL17/spastin axis as a novel therapeutic target of hereditary spastic paraplegia” (Cell & Bioscience, 2022)
